Measured values from the supplement of paper PMC9446081.
Among all 39,000 compounds or so, about 220 (0.56%) showed activity. This is one part of the list.
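Note: static incubation at 37 °C against the wild-type strain, values averaged over two biological replicates.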

The compounds below were run on Escherichia coli K-12 BW25113 (assay: relative growth (OD600 normalised to plate interquartile mean) (fraction); higher = less growth inhibition, active = 0.2 or less). Conditions: 50 µM; LB; incubation time: overnight (16-24 h).
With `CO[C@@H]1CN(C)C(=O)c2cc(NS(C)(=O)=O)ccc2OC[C@H](C)N(C(=O)c2ccc3c(c2)OCO3)C[C@H]1C` the relative growth was inactive: 0.975.
With `C[C@H]1CN([C@@H](C)CO)C(=O)c2ccccc2-c2ccccc2CO[C@@H]1CN(C)C(=O)Nc1cccc(F)c1` the relative growth was inactive: 1.02.
For `Cc1noc(C)c1NC(=O)N(C)C[C@@H]1Oc2ccc(NC(=O)Cn3cnnn3)cc2CC(=O)N([C@@H](C)CO)C[C@H]1C`, the relative growth was inactive: 0.944.
`C[C@@H]1CN([C@@H](C)CO)S(=O)(=O)c2ccc(Br)cc2O[C@@H]1CN(C)C(=O)c1ccc(F)cc1` was tested, and the relative growth was inactive: 1.01.
In the case of `Cc1noc(C)c1NC(=O)N(C)C[C@H]1OCCCC[C@@H](C)Oc2ccc(NC(=O)NC3CCCCC3)cc2C(=O)N([C@H](C)CO)C[C@@H]1C`, the relative growth is reported as inactive: 0.981.
With `C[C@@H]1CN([C@H](C)CO)C(=O)Cc2cc(NC(=O)Nc3ccc(F)cc3)ccc2O[C@@H]1CN(C)C(=O)Nc1ccc(C(F)(F)F)cc1` the relative growth was inactive: 0.993.
With `COc1ccc2c3c([nH]c2c1)[C@H](CO)N(C[C@]13CN(Cc2nccs2)C1)S(=O)(=O)c1ccc(cc1)C` the relative growth was inactive: 1.03.
`C[C@H]1CCCCO[C@@H](CN(C)C(=O)Nc2ccc(C(F)(F)F)cc2)[C@@H](C)CN([C@@H](C)CO)C(=O)c2cc(NS(=O)(=O)c3ccc(Cl)cc3)ccc2O1` was tested, and the relative growth was inactive: 1.
In the case of `Cc1noc(C)c1S(=O)(=O)N(C)C[C@H]1Oc2ccc(NS(C)(=O)=O)cc2C(=O)N([C@H](C)CO)C[C@@H]1C`, the relative growth is reported as inactive: 1.
With `C[C@H]1O[C@@H](OC[C@H]2O[C@@H](OC[C@]3(C)[C@H]4CC[C@@]5(C)[C@H](CC[C@H]6C7=CC(C)(C)CC[C@]7(C(=O)O)CC[C@@]65C)[C@@]4(C)CC[C@@H]3O)[C@@H](O)[C@@H](O)[C@@H]2O)[C@@H](O)[C@@H](O)[C@@H]1O` the relative growth was inactive: 0.98.
For `CC(=C/C(=O)O)/C=C/c1ccccc1`, the relative growth was inactive: 0.985.
In the case of `COc1ccc(CN(C)C[C@@H]2Oc3ccc(NS(=O)(=O)c4cn(C)cn4)cc3C(=O)N([C@H](C)CO)C[C@H]2C)cc1`, the relative growth is reported as inactive: 0.986.
With `CNC[C@H]1Oc2cc(C#CC(C)(C)O)ccc2S(=O)(=O)N([C@@H](C)CO)C[C@@H]1C` the relative growth was inactive: 1.
`COc1ccc(NC(=O)Nc2ccc3c(c2)C(=O)N([C@@H](C)CO)C[C@H](C)[C@@H](CN(C)Cc2ccc(C(=O)O)cc2)OCCCC[C@@H](C)O3)cc1` was tested, and the relative growth was inactive: 0.96.
With `COC(=O)c1cc(S(=O)(=O)N2CCOCC2)cn1C` the relative growth was inactive: 0.978.
In the case of `C[C@@H]1CN([C@@H](C)CO)S(=O)(=O)c2ccc(Br)cc2O[C@H]1CN(C)C(=O)C1CCOCC1`, the relative growth is reported as inactive: 0.976.
With `CNC(=N)NCCC[C@H](N)C(=O)O` the relative growth was inactive: 0.987.
In the case of `C/C(=C\CC[C@@H](C)[C@H]1C[C@@H](O)[C@@]2(C)[C@H]3CC[C@H]4C(C)(C)[C@@H](O[C@@H]5O[C@@H](CO[C@H]6O[C@@H](CO)[C@@H](O)[C@@H](O)[C@@H]6O)[C@@H](O)[C@@H](O)[C@@H]5O)CC[C@@]45C[C@@]35C[C@@H](O)[C@]12C)C(=O)O[C@H]1O[C@@H](CO)[C@@H](O)[C@@H]1O`, the relative growth is reported as inactive: 0.993.
For `C[C@@H]1CN([C@@H](C)CO)C(=O)c2cc(NC(=O)Nc3ccc(C(F)(F)F)cc3)ccc2O[C@@H](C)CCCCO[C@H]1CN(C)C(=O)c1ccccc1`, the relative growth was inactive: 1.05.
For `C[C@@H]1CN([C@@H](C)CO)C(=O)c2cc(NC(=O)CCC(F)(F)F)ccc2O[C@@H](C)CCCCO[C@@H]1CN(C)CC1CCCCC1`, the relative growth was inactive: 0.932.
For `COc1ccc(CN(C)C[C@@H]2OCCCC[C@H](C)Oc3ccc(NS(=O)(=O)c4ccc(OC)cc4)cc3C(=O)N([C@@H](C)CO)C[C@@H]2C)cc1`, the relative growth was inactive: 0.994.
In the case of `CCCNC(=O)N(C)C[C@H]1Oc2cc(C#Cc3ccccn3)ccc2S(=O)(=O)N([C@@H](C)CO)C[C@@H]1C`, the relative growth is reported as inactive: 0.992.
`Cc1cc(N)n(-c2nc(=O)cc(C)[nH]2)n1` was tested, and the relative growth was inactive: 0.903.
`O[C@@H](COc1cccc2ncccc12)CN1CCN([C@@H]2c3ccccc3[C@@H]3[C@H](c4ccccc42)C3(F)F)CC1` was tested, and the relative growth was inactive: 0.99.
`C[C@H]1CN([C@@H](C)CO)C(=O)c2cc(NC(=O)Nc3cccc4ccccc34)ccc2O[C@H]1CN(C)Cc1ccc(-c2ccccc2)cc1` was tested, and the relative growth was inactive: 0.997.
`Nc1ncccc1F` was tested, and the relative growth was inactive: 1.
With `O=C(O)c1cc(O)c2c(O)c3c(O[C@H]4O[C@H](CO)[C@@H](O)[C@H](O)[C@H]4O)cccc3c(-c3c4cc(C(=O)O)cc(O)c4c(O)c4c(O[C@H]5O[C@H](CO)[C@@H](O)[C@H](O)[C@H]5O)cccc34)c2c1` the relative growth was inactive: 1.15.
With `COc1ccc(CNC(=O)C[C@H]2C[C@@H]3c4cc(NS(=O)(=O)c5ccc(F)cc5)ccc4O[C@@H]3[C@@H](CO)O2)cc1` the relative growth was inactive: 1.03.
With `COc1cccc2c1C(=O)c1c(O)c3c(c(O)c1C2=O)CC(O)(C(C)=O)CC3OC1CC(N)C(O)C(C)O1.Cl` (stereo not given) the relative growth was inactive: 1.03.
For `C[C@H](CO)N1C[C@H](C)[C@H](CN(C)C(=O)Nc2ccc3c(c2)OCO3)Oc2cc(C#Cc3ccncc3)ccc2S1(=O)=O`, the relative growth was inactive: 1.04.
With `Cc1noc(C)c1S(=O)(=O)N(C)C[C@H]1Oc2c(NC(=O)C3CCOCC3)cccc2C(=O)N([C@H](C)CO)C[C@H]1C` the relative growth was inactive: 0.988.
For `C[C@@H]1CCCCO[C@@H](CN(C)C(=O)Nc2ccc(C(F)(F)F)cc2)[C@@H](C)CN([C@H](C)CO)C(=O)c2cc(NC(=O)Nc3ccc(F)cc3)ccc2O1`, the relative growth was inactive: 1.
With `CC(C)CC#Cc1cnc2c(c1)C(=O)N([C@@H](C)CO)C[C@@H](C)[C@H](CN(C)S(=O)(=O)c1cn(C)cn1)O2` the relative growth was inactive: 0.97.
For `C[C@@H]1CN([C@@H](C)CO)C(=O)c2cc(NC(=O)Cn3cnnn3)ccc2O[C@@H]1CN(C)C(=O)NC1CCCCC1`, the relative growth was inactive: 0.992.
For `CO[C@H]1O[C@H](CO)[C@@H](OC(=O)Nc2ccc3c(c2)OCO3)[C@H](OC(=O)Nc2ccc3c(c2)OCO3)[C@@H]1OC(=O)Nc1ccc2c(c1)OCO2`, the relative growth was inactive: 1.
